Reference: PubChem BioAssay (Tox21)
The shares of active, inactive and inconclusive entries below differ from those in the screen. For part of these data: Potencies of inconclusive entries are doubtful fits and often do not repeat. Activity calls are given as the source filed them. Unless noted, calls come from the whole dose curve; as a rule, active = well fitted curve in the direction sought with a large enough effect in the repeat runs; inconclusive = weak or mixed curves; inactive = no such curve, though single readings can be large; an effect the other way counts as inactive or inconclusive.

Key:
[1] = qHTS assay for small molecule agonists of the p53 signaling pathway (AID 651631; calls by dose curve; note: nearly all actives have a fitted effect of over 15% in size; note: potency is the fitted concentration of half-maximal effect); conditions: HCT-116 p53RE-bla reporter, beta-lactamase FRET ratio, 16 h; activation: at 73.3 µM (top of the series) unless noted
Method in brief: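 Readout was fluorescence from the LiveBLAzer FRET substrate, applied for 2 h at room temperature after 16 h compound exposure at 37 °C. Cells were the p53RE-bla HCT-116 line, with beta-lactamase driven by p53 response elements.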

[2] = qHTS assay for small molecule disruptors of the mitochondrial membrane potential (AID 720635); conditions: HepG2 mitochondrial membrane potential, Mito-MPS dye ratio; ratio activity, negative = MMP loss: at 83.2 µM (top of the series) unless noted; note: potency is the fitted concentration of half-maximal effect
Method in brief: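 HepG2 cells exposed to compound 1 hr at 37C, then Mito-MPS dye 30 min. Ratio read of aggregate (540/590 nm) versus monomer (490/535 nm) fluorescence.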

[3] = qHTS assay for identifying genotoxic compounds that show differential cytotoxicity against isogenic chicken DT40 cell lines with known DNA damage response pathways - Rev3 mutant cell line (AID 743014); conditions: chicken DT40 Rev3-/- viability, CellTiter-Glo, 40 h; activity, negative = cytotoxicity: at 68.4 µM (top of the series); note: nearly all actives have a fitted effect of over 55% in size; note: potency is the fitted concentration of half-maximal effect
[4] = qHTS assay to identify small molecule antagonists of the thyroid receptor (TR) signaling pathway - cell viability counter screen (AID 743064); conditions: GH3.TRE-Luc viability, CellTiter-Fluor, 24 h; activity change, negative = cytotoxic: at 70.3 µM (top of the series) unless noted; note: nearly all actives have a fitted effect of over 50% in size; note: potency is the fitted concentration of half-maximal effect
Method in brief: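 In-well cytotoxicity read by CellTiter-Fluor (30 min, 37 C) following 23.5 h exposure of GH3 cells bearing a TRE-luciferase sensor. Compounds were added alongside 1 nM (final) T3 to drive TR transactivation.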

[5] = qHTS assay for small molecule agonists of the antioxidant response element (ARE) signaling pathway (AID 743202; active = well fitted activation curve with a large enough effect in the signal ratio in the repeat runs, not every such curve was filed as active; inconclusive = weak or mixed curves, or effect the other way; inactive = no such curve, though single readings can be large or run the other way; the % refers to the signal ratio; note: potency is the fitted concentration of half-maximal effect); conditions: HepG2 ARE-bla reporter, beta-lactamase FRET, 16 h; activation: at 73.3 µM (top of the series) unless noted
Method in brief: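 ARE-bla HepG2 cells (beta-lactamase reporter under the antioxidant response element), plated 5 hours, then exposed to compounds 16 hours at 37 C. LiveBLAzer B/G FRET substrate added for 2 hours at room temperature; fluorescence intensity read.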

[6] = target: Vitamin D3 receptor (Homo sapiens) (UniProt P11473); experiment: qHTS assay to identify small molecule antagonists of the vitamin D receptor (VDR) signaling pathway (AID 743223; active = well fitted inhibition curve with a large enough effect in the signal ratio in the repeat runs, not every such curve was filed as active; inconclusive = weak or mixed curves, or effect the other way; inactive = no such curve, though single readings can be large or run the other way; the % refers to the signal ratio); conditions: VDR-UAS-bla HEK293T, beta-lactamase FRET ratio, 16 h; activity change, negative = inhibition: at 61 µM (top of the series) unless noted
Method in brief: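 Antagonist mode: compound added to VDR-bla cells alongside agonist 1alpha,25-dihydroxyvitamin D3 (3 nM final), incubation 16 h at 37C. Read-out is LiveBLAzer FRET fluorescence, 2 h at room temperature.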

[7] = target: Cytochrome P450 2D6 (Homo sapiens) (UniProt P10635); experiment: Cytochrome P450 Family 2 Subfamily D Member 6 (CYP2D6) small molecule antagonists: luciferase reporter qHTS assay (AID 1671196); note: nearly all actives have a fitted effect of over 50% in size; note: potency is the fitted concentration of half-maximal effect
Method in brief: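 Read-out is luminescence from luciferin formed by CYP2D6 turnover of a proluciferin substrate, recorded as relative luminescence units. Reactions ran 1 h at room temperature after NADPH regeneration solution was added.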

[8] = target: Cytochrome P450 1A2 (Homo sapiens) (UniProt P05177); experiment: Cytochrome P450 Family 1 Subfamily A Member 2 (CYP1A2) small molecule antagonists: luciferase reporter qHTS assay (AID 1671199); note: nearly all actives have a fitted effect of over 50% in size; note: potency is the fitted concentration of half-maximal effect
Method in brief: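 P450-Glo CYP1A2, 1536-well qHTS: enzyme/proluciferin substrate + cpd (DMSO), 10 min RT; NADPH regen, 1 h RT; detection reagent, 20 min; luminescence, RLU.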

[9] = qHTS assay for identifying genotoxic compounds that show differential cytotoxicity against isogenic chicken DT40 cell lines with known DNA damage response pathways - wild type cell line (AID 743012); conditions: DT40 wild type chicken cells viability, CellTiter-Glo, 40 h; activity change, negative = cytotoxicity: at 68.4 µM (top of the series) unless noted; note: nearly all actives have a fitted effect of over 60% in size; note: potency is the fitted concentration of half-maximal effect
Method in brief: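 Wild type DT40, 300 cells/well, ~0.5 h settle at 37 C/5% CO2; compounds in DMSO added by pintool; 40 h at 37 C/5% CO2; CellTiter-Glo, 30 min RT; luminescence.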

[10] = qHTS assay to identify small molecule antagonists of the sonic hedgehog signaling (Shh) pathway (AID 1259369; calls by dose curve; note: nearly all actives have a fitted effect of over 45% in size; note: potency is the fitted concentration of half-maximal effect)
Method in brief: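 3T3Gli1-Luc, conditioned-medium-stimulated, 24hr cpd, 37C/5% CO2; Gli1-driven firefly Luc luminescence after 30min RT with luciferase reagent. Cells plated 4hr before cpd.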

[11] = qHTS assay to identify small molecule agonists of the estrogen receptor beta (ER-beta) signaling pathway - cell viability counter screen (AID 1259380); note: nearly all actives have a fitted effect of over 30% in size
Method in brief: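 HEK293T ER-beta-UAS-bla; 2% CS-FBS; 6 hr pre-plate, 16 hr cpd at 37C/5% CO2; LiveBLAzer read first, then CellTiter-Glo 30 min RT, luminescence.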

[12] = target: Cytochrome P450 2C19 (Homo sapiens) (UniProt P33261); experiment: Cytochrome P450 Family 2 Subfamily C Member 19 (CYP2C19) small molecule antagonists: luciferase reporter qHTS assay (AID 1671197); note: nearly all actives have a fitted effect of over 65% in size; note: potency is the fitted concentration of half-maximal effect
Method in brief: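 Inhibition of CYP2C19 was scored from loss of luminescence in a P450-Glo proluciferin substrate assay, NADPH-started and run 1 h at 37C, with ketoconazole as positive control.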

[13] = target: Glucocorticoid receptor (Homo sapiens) (UniProt P04150); experiment: qHTS assay to identify small molecule antagonists of the glucocorticoid receptor (GR) signaling pathway (AID 720692; active = well fitted inhibition curve with a large enough effect in the signal ratio in the repeat runs, not every such curve was filed as active; inconclusive = weak or mixed curves, or effect the other way; inactive = no such curve, though single readings can be large or run the other way; the % refers to the signal ratio; note: potency is the fitted concentration of half-maximal effect); conditions: GR-bla HeLa, beta-lactamase FRET ratio, dexamethasone-stimulated, 18 h; activity change, negative = inhibition: at 58.5 µM (top of the series) unless noted
Method in brief: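 HeLa GR-bla cells; cmpd + dex 5 nM final, 18 h 37 C; LiveBLAzer B/G FRET substrate 2 h RT; fluorescence intensity read. Antagonist mode, qHTS.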

[14] = target: Peroxisome proliferator-activated receptor gamma (Homo sapiens) (UniProt P37231); experiment: qHTS assay to identify small molecule antagonists of the peroxisome proliferator-activated receptor gamma (PPARg) signaling pathway (AID 743191; calls by dose curve; note: nearly all actives have a fitted effect of over 30% in size; note: potency is the fitted concentration of half-maximal effect); conditions: HEK293H PPARg-UAS-bla, beta-lactamase ratio, antagonist, 17 h; ratio activity, negative = inhibition: at 62.6 µM (top of the series) unless noted
Method in brief: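 GeneBLAzer PPARg UAS-bla HEK293H cells, 5 h post-plating, exposed to compounds 17 h at 37C. LiveBLAzer B/G FRET substrate added for 1 h at room temperature; beta-lactamase reporter read by fluorescence intensity.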

[15] = qHTS assay for identifying genotoxic compounds that show differential cytotoxicity against isogenic chicken DT40 cell lines with known DNA damage response pathways - Rad54/Ku70 mutant cell line (AID 743015); conditions: DT40 Rad54/Ku70 mutant viability, CellTiter-Glo, 40 h; activity change, negative = cytotoxicity: at 66.8 µM (top of the series); note: nearly all actives have a fitted effect of over 60% in size; note: potency is the fitted concentration of half-maximal effect
[16] = qHTS assay to identify small molecule antagonists of the estrogen receptor alpha (ER-alpha) signaling pathway - cell viability counter screen (AID 743074; calls by dose curve;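 note: HEK293 cells carrying ER-alpha-UAS-bla reporter stimulated with 17beta-estradiol; nearly all actives have a fitted effect of over 45% in size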; note: potency is the fitted concentration of half-maximal effect)
[17] = target: Cytochrome P450 2C9 (Homo sapiens) (UniProt P11712); experiment: Cytochrome P450 Family 2 Subfamily C Member 9 (CYP2C9) small molecule antagonists: luciferase reporter qHTS assay (AID 1671198); note: nearly all actives have a fitted effect of over 50% in size; note: potency is the fitted concentration of half-maximal effect
Method in brief: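 P450-Glo proluciferin substrate with CYP2C9 enzyme; 10 min RT preincubation, then NADPH regeneration 1 h at 37C; luciferin detection reagent 20 min RT, luminescence in relative luminescence units.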

[18] = qHTS assay to identify small molecule agonists of the progesterone receptor (PR) signaling pathway - cell viability counter screen (AID 1346799; calls by dose curve; note: nearly all actives have a fitted effect of over 45% in size; note: potency is the fitted concentration of half-maximal effect)
Method in brief: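 Cytotoxicity measured by CellTiter-Glo luminescence (30 min, RT) in the same wells as the PR beta-lactamase agonist read. Those HEK293T cells had 16 h compound treatment at 37 C in 2% charcoal-stripped FBS medium.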

[19] = target: Progesterone receptor (Homo sapiens) (UniProt P06401); experiment: qHTS assay to identify small molecule antagonists of the progesterone receptor (PR) signaling pathway (AID 1346795; active = well fitted inhibition curve with a large enough effect in the signal ratio in the repeat runs, not every such curve was filed as active; inconclusive = weak or mixed curves; the % refers to the signal ratio); conditions: PR-UAS-bla HEK293T, beta-lactamase FRET ratio, 16 h; activity change, negative = inhibition: at 92.4 µM (top of the series) unless noted
Method in brief: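 Antagonist mode with agonist R5020 at 1 nM final and 16 hr incubation at 37C. Reporter was beta-lactamase driven by UAS in HEK293T (PR-UAS-bla), 2% charcoal-stripped serum; signal from LiveBLAzer FRET substrate, 2 hr at room temperature.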
% is set by controls: 0 for no effect and ±100 for the full control effect; tags give direction and shape of the fitted curve or compound fluorescence and quenching.

Sequence of UniProt P04150 (P04150 whole entry, looked up): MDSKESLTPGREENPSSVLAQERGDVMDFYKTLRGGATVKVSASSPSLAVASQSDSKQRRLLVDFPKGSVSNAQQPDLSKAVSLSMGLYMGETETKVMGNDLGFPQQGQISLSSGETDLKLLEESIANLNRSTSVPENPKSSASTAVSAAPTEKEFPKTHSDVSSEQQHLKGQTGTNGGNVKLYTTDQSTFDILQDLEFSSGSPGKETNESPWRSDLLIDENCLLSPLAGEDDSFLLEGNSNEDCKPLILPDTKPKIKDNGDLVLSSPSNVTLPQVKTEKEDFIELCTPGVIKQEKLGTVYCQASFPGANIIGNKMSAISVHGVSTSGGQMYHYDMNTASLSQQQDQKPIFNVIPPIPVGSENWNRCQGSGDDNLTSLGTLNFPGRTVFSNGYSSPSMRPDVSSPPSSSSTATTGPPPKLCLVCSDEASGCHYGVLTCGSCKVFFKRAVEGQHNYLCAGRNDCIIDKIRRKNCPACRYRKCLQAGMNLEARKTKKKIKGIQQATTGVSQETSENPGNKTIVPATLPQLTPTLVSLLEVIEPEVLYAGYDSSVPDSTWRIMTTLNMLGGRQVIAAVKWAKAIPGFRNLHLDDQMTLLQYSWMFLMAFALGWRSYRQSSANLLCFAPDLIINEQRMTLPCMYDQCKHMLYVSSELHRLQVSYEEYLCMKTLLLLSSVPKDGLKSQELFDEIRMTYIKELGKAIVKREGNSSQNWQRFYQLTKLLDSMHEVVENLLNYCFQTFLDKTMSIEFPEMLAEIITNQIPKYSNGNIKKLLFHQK
Sequence of UniProt P37231 (P37231 whole entry, looked up): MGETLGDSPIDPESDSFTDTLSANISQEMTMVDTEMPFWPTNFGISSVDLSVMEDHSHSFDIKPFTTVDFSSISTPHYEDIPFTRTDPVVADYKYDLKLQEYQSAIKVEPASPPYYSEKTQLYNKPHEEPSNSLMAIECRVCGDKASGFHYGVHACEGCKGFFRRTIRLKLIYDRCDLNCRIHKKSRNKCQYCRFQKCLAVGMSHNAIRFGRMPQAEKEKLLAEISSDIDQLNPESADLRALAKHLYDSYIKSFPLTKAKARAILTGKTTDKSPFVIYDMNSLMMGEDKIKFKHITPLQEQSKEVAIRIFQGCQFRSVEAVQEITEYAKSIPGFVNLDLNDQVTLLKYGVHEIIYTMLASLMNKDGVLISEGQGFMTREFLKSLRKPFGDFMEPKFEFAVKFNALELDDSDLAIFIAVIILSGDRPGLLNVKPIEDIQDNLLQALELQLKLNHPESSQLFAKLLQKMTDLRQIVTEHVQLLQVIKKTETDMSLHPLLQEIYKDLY
Sequence of UniProt P11473 (P11473 whole entry, looked up): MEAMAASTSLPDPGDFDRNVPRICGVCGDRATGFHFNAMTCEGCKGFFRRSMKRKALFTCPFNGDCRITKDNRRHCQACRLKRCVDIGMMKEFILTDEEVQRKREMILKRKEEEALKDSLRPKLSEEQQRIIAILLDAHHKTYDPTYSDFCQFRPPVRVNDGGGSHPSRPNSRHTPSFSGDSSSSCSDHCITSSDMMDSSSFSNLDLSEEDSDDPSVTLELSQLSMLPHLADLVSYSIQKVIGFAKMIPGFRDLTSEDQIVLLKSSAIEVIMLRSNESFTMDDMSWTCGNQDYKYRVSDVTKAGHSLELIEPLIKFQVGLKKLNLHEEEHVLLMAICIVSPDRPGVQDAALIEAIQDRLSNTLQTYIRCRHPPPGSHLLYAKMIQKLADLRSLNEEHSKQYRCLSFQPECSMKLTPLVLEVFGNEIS
Sequence of UniProt P33261 (P33261 whole entry, looked up): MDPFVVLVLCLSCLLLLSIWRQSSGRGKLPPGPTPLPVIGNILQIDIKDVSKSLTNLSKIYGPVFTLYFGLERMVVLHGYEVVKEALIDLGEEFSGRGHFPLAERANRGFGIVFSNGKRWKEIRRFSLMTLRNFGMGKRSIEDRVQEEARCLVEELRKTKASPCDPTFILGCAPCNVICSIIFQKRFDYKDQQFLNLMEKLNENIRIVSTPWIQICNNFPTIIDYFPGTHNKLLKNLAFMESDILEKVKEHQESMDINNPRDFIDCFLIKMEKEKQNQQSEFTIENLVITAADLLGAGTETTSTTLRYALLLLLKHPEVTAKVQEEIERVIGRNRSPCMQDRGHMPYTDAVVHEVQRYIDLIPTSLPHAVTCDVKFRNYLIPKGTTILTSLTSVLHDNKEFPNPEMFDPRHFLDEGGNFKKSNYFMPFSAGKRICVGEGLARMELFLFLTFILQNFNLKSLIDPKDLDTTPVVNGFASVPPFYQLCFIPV
Sequence of UniProt P11712 (P11712 whole entry, looked up): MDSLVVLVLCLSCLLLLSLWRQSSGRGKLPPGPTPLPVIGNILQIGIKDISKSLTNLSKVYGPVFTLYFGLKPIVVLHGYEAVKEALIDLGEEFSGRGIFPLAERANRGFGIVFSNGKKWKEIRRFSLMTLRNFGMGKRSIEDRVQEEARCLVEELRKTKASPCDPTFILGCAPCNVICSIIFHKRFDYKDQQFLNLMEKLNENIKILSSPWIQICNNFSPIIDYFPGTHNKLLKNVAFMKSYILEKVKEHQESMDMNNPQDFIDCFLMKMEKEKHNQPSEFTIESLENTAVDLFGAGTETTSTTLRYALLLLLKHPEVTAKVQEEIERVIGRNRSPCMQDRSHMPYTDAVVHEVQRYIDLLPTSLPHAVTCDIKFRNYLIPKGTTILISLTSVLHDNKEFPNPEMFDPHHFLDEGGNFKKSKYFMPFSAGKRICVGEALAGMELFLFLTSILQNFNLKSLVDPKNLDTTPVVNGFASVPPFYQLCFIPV
Sequence of UniProt P06401 (P06401 whole entry, looked up): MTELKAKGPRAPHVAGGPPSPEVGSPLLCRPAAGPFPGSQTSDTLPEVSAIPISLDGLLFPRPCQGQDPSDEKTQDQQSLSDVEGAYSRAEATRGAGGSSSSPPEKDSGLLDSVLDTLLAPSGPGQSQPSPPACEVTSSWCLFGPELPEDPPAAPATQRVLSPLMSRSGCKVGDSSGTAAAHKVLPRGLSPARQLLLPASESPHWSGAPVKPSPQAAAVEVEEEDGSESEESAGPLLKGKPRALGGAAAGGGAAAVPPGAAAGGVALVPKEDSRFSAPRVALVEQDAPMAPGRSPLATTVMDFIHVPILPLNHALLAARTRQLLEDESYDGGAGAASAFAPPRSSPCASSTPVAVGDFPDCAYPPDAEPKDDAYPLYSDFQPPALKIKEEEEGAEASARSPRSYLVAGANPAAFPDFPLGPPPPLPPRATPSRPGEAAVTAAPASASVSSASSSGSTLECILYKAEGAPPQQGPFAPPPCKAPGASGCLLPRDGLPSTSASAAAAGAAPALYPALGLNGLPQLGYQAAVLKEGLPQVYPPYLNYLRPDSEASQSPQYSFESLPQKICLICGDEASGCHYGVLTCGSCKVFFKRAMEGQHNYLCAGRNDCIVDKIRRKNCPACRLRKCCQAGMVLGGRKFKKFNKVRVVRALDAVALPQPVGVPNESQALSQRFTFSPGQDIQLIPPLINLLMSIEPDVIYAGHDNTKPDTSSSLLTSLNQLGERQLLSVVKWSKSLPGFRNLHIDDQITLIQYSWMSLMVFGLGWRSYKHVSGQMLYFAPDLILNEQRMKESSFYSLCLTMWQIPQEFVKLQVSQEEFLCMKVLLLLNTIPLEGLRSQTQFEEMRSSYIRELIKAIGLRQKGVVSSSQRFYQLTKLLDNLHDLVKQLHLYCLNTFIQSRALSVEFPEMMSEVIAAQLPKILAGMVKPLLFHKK
Sequence of UniProt P10635 (P10635 whole entry, looked up): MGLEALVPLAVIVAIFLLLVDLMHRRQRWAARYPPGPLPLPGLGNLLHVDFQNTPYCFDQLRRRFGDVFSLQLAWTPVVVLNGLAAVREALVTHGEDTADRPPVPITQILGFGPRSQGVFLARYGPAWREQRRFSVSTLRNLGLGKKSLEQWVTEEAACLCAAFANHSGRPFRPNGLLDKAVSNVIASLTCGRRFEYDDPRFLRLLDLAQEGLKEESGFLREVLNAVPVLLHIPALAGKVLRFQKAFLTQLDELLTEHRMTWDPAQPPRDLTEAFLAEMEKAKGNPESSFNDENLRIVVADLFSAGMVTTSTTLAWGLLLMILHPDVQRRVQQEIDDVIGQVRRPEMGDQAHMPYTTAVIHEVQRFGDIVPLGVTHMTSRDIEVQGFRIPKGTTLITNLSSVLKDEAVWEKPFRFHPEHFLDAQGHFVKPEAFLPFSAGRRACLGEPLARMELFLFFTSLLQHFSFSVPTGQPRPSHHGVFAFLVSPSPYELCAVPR
Sequence of UniProt P05177 (P05177 whole entry, looked up): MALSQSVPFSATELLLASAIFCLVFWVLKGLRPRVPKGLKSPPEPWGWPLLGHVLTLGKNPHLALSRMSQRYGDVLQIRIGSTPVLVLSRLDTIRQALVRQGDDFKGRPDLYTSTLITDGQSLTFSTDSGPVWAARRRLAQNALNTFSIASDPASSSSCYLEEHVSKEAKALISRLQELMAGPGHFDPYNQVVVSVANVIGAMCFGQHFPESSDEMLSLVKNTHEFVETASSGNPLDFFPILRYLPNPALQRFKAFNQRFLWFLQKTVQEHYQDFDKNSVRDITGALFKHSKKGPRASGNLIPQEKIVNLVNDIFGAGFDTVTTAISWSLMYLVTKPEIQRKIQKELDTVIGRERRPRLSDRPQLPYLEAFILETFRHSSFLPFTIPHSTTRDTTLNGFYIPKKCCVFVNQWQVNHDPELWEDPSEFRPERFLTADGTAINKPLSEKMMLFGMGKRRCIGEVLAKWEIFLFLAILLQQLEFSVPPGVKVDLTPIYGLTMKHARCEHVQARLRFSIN

CCCCC(=O)Cl
inconclusive: Potency [3] 77.6 µM [cytotoxic, partial curve, poor fit] | Potency [4] 69.1 µM [rising, single point] | Potency [5] 30.9 µM [rising, full curve, poor fit] | activity change, negative = inhibition [6] -0.987% [at 78.8 µM] | Potency [7] 63.8 µM [inhibitor, partial curve, poor fit] | Potency [8] 71.6 µM [inhibitor]
inactive: Potency [1] | Potency [2]

O=C(O)C(O)C(O)C(=O)O (stereo unspecified)
inconclusive: Potency [2] 48.3 µM [activator, partial curve, poor fit]

COC(=O)c1ccccc1S(=O)(=O)NC(=O)N(C)c1nc(C)nc(OC)n1
inconclusive: Potency [1] 29.6 µM [falling, single point] | Potency [2] 29.6 µM [activator, single point] | Potency [9] 83.4 µM [rising, single point] | Potency [10] 14.8 µM [inhibitor, full curve, poor fit] | Potency [12] 96.9 µM [inhibitor, single point]
inactive: Potency [5] | Potency [11]

O=S1(=O)OCCO1
inconclusive: ratio activity, negative = MMP loss [2] -11.2% [at 95.3 µM] | Potency [13] 0.223 µM [activator, single point] | Potency [12] 1.45 µM [inhibitor, full curve, poor fit] | Potency [8] 72.5 µM [inhibitor, partial curve, poor fit]
inactive: Potency [14] | Potency [5]

O=C(Cl)C(Cl)(Cl)Cl
inactive: Potency [1] | Potency [3] | Potency [15] | Potency [6] | Potency [11] | Potency [8]
inconclusive: Potency [13] 2.2 µM [activator, single point] | activity change, negative = cytotoxic [4] 30.2% [at 95 µM] | Potency [7] 28.4 µM [inhibitor]

CCOc1cccc(C2(N3CCN(c4ccccc4)CC3)CCC(C)CC2)c1 (stereo unspecified)
inconclusive: Potency [3] 48.6 µM [cytotoxic, partial curve] | Potency [15] 68.6 µM [cytotoxic, single point] | activity change, negative = cytotoxic [4] 33.8% | Potency [16] 21.9 µM [rising, single point] | Potency [17] 71 µM [inhibitor, partial curve]
inactive: Potency [7] | Potency [12]
active: Potency [8] 20 µM

CC(O)CCl (stereo unspecified)
inactive: Potency [13] | Potency [18] | Potency [12]
inconclusive: ratio activity, negative = MMP loss [2] 14.8% | activation [5] -4.64% | activity change, negative = inhibition [6] 9.03% | Potency [8] 39.1 µM [inhibitor, partial curve]

CN(C)C(=O)Nc1cccc(OC(=O)NC(C)(C)C)c1
inconclusive: Potency [3] 24.3 µM [cytotoxic, partial curve, poor fit] | Potency [14] 34.7 µM [inhibitor, partial curve] | Potency [5] 24.3 µM [rising, single point] | activity change, negative = inhibition [6] 17.1%
inactive: Potency [2] | Potency [4] | Potency [18] | Potency [12] | Potency [17]

CC(C)c1ccc(O)cc1
inconclusive: ratio activity, negative = MMP loss [2] 10.8% | activity change, negative = inhibition [13] 25.2% | activity change, negative = cytotoxicity [15] 13.2% | activation [5] -6.31% | Potency [17] 35.6 µM [inhibitor, partial curve]
inactive: Potency [14]
active: Potency [8] 22.4 µM

CNCC(=O)c1ccc(O)c(O)c1
inconclusive: Potency [16] 10.7 µM [rising, single point] | activity change, negative = inhibition [6] 20.6%
inactive: Potency [14] | Potency [8]

Nc1c(Br)cc(Br)c2c1C(=O)c1ccccc1C2=O
inconclusive: Potency [14] 6.52 µM [activator, single point] | Potency [5] 12.9 µM [rising, partial curve, poor fit] | Potency [18] 0.324 µM [cytotoxic, single point]
inactive: Potency [9] | Potency [15] | Potency [6]
active: Potency [2] 2.29 µM | Potency [8] 0.168 µM

CS(=O)(=O)c1ccc(C(=O)C2C(=O)CCCC2=O)c(Cl)c1COCC(F)(F)F
inactive: Potency [4] | Potency [16] | Potency [5] | Potency [12]
inconclusive: activation [1] 4.64% | ratio activity, negative = MMP loss [2] -20.6% | activity change, negative = inhibition [13] 17% | Potency [3] 0.0968 µM [cytotoxic, full curve]

COc1cc(C[C@@H](C)N)c(OC)cc1Br
active: Potency [9] 70.4 µM | Potency [4] 62.8 µM
inconclusive: Potency [2] 35.3 µM [activator, partial curve] | Potency [3] 79 µM [cytotoxic] | Potency [15] 79 µM [cytotoxic, single point] | Potency [16] 25.2 µM [rising, full curve] | Potency [5] 31.5 µM [falling, partial curve] | Potency [10] 19.9 µM [inhibitor, partial curve] | activity change, negative = inhibition [19] -32.6% | Potency [18] 17.7 µM [cytotoxic, partial curve]

N#CC1(N=NC2(C#N)CCCCC2)CCCCC1
inactive: Potency [2] | Potency [15]
inconclusive: Potency [5] 2.73 µM [rising, partial curve, poor fit] | activity change, negative = inhibition [19] -21.5% | Potency [7] 35.6 µM [inhibitor, partial curve]
active: Potency [10] 21.7 µM | Potency [17] 11.2 µM

CCN[C@@H](C)Cc1ccccc1
inactive: Potency [13] | Potency [9] | Potency [4] | Potency [14] | Potency [10]
inconclusive: ratio activity, negative = MMP loss [2] 10.3% [at 95.3 µM] | Potency [3] 27.1 µM [cytotoxic, partial curve, poor fit] | Potency [15] 60.6 µM [cytotoxic, partial curve, poor fit] | activation [5] -10% [at 94.8 µM] | Potency [12] 99.5 µM [inhibitor, single point]

CCC1(c2ccccc2)C(=O)N(COC)C(=O)N(COC)C1=O
inconclusive: Potency [4] 0.0596 µM [rising, full curve, poor fit] | Potency [17] 15.5 µM [inhibitor, partial curve, poor fit]
inactive: Potency [13] | Potency [15] | Potency [6]

NCC1(CC(=O)O)CCCCC1
inconclusive: activity change, negative = inhibition [6] 16.5%
inactive: Potency [1] | Potency [2] | Potency [15] | Potency [14] | Potency [19] | Potency [8]

CCC(C)n1c(=O)[nH]c(C)c(Br)c1=O (stereo unspecified)
inconclusive: Potency [2] 4.85 µM [activator, single point] | Potency [3] 68.5 µM [cytotoxic, single point] | Potency [18] 27.3 µM [cytotoxic, single point] | Potency [17] 71 µM [inhibitor] | Potency [8] 39.9 µM [inhibitor]
